# In paper PMC4336329 (PLoS ONE, 2015):
# The whole screen tested about 310,000 compounds, of which about 14,000 (4.5%) showed an effect of 50% or more. Effects have a minus sign here. Some of the results follow.
# Target: human ether-à-go-go-related gene (hERG) potassium channel (human, UniProt Q12809)
# Test: primary screen, population patch clamp on CHO cells stably expressing hERG
# 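Note: peak tail current of the secondary pulse compared with the same well before compound.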
# Sequence of human ether-à-go-go-related gene (hERG) potassium channel (Q12809 whole entry, looked up): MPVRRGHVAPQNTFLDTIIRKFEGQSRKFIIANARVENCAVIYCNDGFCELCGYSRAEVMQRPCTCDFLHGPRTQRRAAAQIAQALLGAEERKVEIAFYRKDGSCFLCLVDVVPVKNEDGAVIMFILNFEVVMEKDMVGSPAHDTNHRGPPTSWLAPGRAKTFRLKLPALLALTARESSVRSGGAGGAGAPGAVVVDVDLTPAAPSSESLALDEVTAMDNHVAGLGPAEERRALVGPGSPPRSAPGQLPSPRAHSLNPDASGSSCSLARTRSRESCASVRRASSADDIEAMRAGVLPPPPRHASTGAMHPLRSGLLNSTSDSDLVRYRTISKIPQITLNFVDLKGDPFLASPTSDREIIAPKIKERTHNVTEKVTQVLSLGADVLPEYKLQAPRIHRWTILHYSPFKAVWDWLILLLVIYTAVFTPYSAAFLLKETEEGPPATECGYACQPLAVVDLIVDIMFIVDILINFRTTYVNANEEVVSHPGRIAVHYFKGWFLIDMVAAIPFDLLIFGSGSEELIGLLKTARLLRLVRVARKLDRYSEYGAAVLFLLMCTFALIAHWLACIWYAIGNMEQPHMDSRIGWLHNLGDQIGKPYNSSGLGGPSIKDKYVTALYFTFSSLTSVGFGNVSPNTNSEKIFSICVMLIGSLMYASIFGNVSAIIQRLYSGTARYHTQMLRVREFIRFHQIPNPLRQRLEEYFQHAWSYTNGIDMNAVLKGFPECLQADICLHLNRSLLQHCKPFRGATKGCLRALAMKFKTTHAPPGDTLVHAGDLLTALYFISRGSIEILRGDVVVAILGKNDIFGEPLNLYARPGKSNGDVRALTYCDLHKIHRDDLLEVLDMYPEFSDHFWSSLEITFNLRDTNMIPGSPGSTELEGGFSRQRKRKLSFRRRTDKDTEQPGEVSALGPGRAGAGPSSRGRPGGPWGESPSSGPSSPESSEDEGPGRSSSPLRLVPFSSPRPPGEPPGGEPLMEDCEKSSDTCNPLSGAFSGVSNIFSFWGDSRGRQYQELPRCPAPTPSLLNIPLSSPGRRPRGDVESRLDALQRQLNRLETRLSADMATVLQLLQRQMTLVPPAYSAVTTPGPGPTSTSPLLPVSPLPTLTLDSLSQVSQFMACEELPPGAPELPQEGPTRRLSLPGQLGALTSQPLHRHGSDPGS
row,Structure (SMILES),"hERG current change (%, negative = inhibition) at 10uM"
1,CCCCN(CC)CCCNC(=O)c1cc2cc3ccc(OC)cc3nc2o1,-64.5%
2,COc1ccc(CCC(=O)Nc2ccc(-c3noc(-c4ccc(OC)c(OC)c4)n3)cc2)cc1,19.9%
3,CS(=O)(=O)N(CC(=O)NCc1ccncc1)c1ccc(Cl)c(Cl)c1,-17.8%
4,CC1(C)NC(=O)N(c2ccccc2Cl)C1(C)NO (centres unmarked),-5.5%
5,CC(C)CCNC(=O)CN(Cc1ccccc1)C(=O)CCC(=O)Nc1ccccn1,-19.7%
6,Cc1ccc(-c2nnc(-c3cccc(NC(=O)c4cccs4)c3)o2)cc1,-13.9%
7,CCOC(=O)N1CCN(C(=O)CNC(=O)c2ccc(Cl)cc2Cl)CC1,-20%
8,COc1ccc(CN2CCN(CC(O)Cn3c4ccccc4c4ccccc43)CC2)cc1 (centres unmarked),-75.2%
9,COc1ccc2c(c1)CC[C@@H]1[C@@H]2CC[C@]2(C)C(=O)CC[C@@H]12,7.61%
10,Cc1ccc(C(=O)N/C(=C\c2ccccc2)C(=O)NCC2CCCO2)cc1 (centres unmarked),-24.3%
11,CCCc1nc2c(nnn2Cc2ccccc2)c(=O)[nH]1,9.17%
12,CC(C)c1ccc(-n2nnnc2SCC(=O)NC2CC2)cc1,-0.709%
13,COc1ccc(NC(=O)c2ccc(S(=O)(=O)C(F)F)cc2)c(OC)c1,-29.8%
14,COc1ccccc1CNC(=O)COC(=O)c1n[nH]c2ccccc12,-9.37%
15,Cc1ccc(C2=CC(c3ccccc3)n3ncnc3N2)cc1 (centres unmarked),-15.8%
16,CC(C)CCN1C(=O)c2ccc(C(=O)NCC3CCCO3)cc2C1=O (centres unmarked),-8.48%
17,Cc1ccc(C(=O)N(c2ccccc2)C2CC(C)N(C(=O)c3ccco3)c3ccccc32)cc1 (centres unmarked),-12.2%
18,CCC(C)NC(=O)CCS(=O)(=O)c1ccc(Br)s1 (centres unmarked),8.89%
19,Cc1ccc(-c2csc3ncnc(SCC(=O)Nc4nnc(C)s4)c23)cc1,-4.31%

row,Structure (SMILES),"hERG current change (%, negative = inhibition) at 10uM"
1,Cc1cc(C)c(C(=O)C2OC(=O)C(C)(C)C(=O)C2(C)C)c(C)c1 (centres unmarked),-1.91%
2,COS(=O)(=O)[O-].Cn1c(Cc2ccccc2)[n+](C)c2ccccc21,6.5%
3,O=C(CC1C(=O)NC2CCCCC2N1C(=O)c1ccc([N+](=O)[O-])cc1)Nc1ccccc1 (centres unmarked),-34.4%
4,CC(C)NC(=O)c1cc2cc([N+](=O)[O-])ccc2s1,13.6%
5,CC(C)CCNC(=O)COc1ccc(C(=O)c2ccccc2)cc1,-23.8%
6,O=S(=O)(Cc1nc2ccccc2s1)c1ccccc1,0.281%
7,CC(=O)c1cccc(NC(=O)CSCc2ccccc2)c1,-8.1%
8,Cc1cc(S(=O)(=O)N(Cc2ccccc2F)C2CC2)ccc1-n1cnnn1,-14.8%
9,COc1ccc(OC)c2sc(NC(=O)c3cccc(N4C(=O)CCC4=O)c3)nc12,4.6%
10,O=S(=O)(NCc1cccs1)c1ccc(Br)cc1,-12.2%
11,O=C(Nc1c2c(nn1-c1ccccc1)CS(=O)(=O)C2)c1cccs1,-20%
12,Cc1ccc(N(O)C(=O)OCCNC(=O)Nc2ccccc2)cc1,-0.0127%
13,COc1ccnc(Oc2ccccc2)c1C#N,4.39%
14,O=C(Cc1c(Cl)cccc1Cl)Nc1ccncc1,-11.9%
15,CCC1(C)Cc2ccccc2-c2nc3n(c(=O)c21)CC(C(=O)O)S3 (centres unmarked),13.5%
16,Cc1ccc(C(=O)C(C)OC(=O)C2CCN(c3ccc(C(F)(F)F)cn3)CC2)cc1C (centres unmarked),3.79%
17,CCn1c(-c2nn(-c3ccc(C)cc3)ccc2=O)n[nH]c1=S,10.7%
18,O=C1c2ccccc2NC(c2cc(Cl)cc(Cl)c2O)N1Cc1cccnc1 (centres unmarked),-7.02%
19,CN1C(C(=O)NCCc2cccs2)CC2Cn3c(nc4cc5ccccc5cc43)C21 (centres unmarked),-65.9%

row,Structure (SMILES),"hERG current change (%, negative = inhibition) at 10uM"
1,CC(C)(C)C(=O)Oc1cc(N)n(S(=O)(=O)c2ccccc2)n1,9.2%
2,CCOC(=O)CSc1snnc1-c1ccccc1,-5.35%
3,Cc1cccc(OCCSc2nc(N)cc(N)n2)c1,1.33%
4,COc1ccccc1CCc1nnc(CCC(=O)NCCCOc2cccnc2)o1,5.77%
5,CC(=O)c1ccc(OC(=O)CCc2nc3ccccc3s2)cc1,21%
6,CCOc1cc2c(cc1OCC)-n1cccc1C(c1ccc(OC)c(O)c1)NC2.Cl (centres unmarked),-12.4%
7,COc1ccc(C(=O)CCNc2ccc(F)cc2)cc1,21.5%
8,CC(C)Oc1ccc(C(=O)Nc2cccc3cccnc23)cc1,26.9%
9,Cc1ccc(CSc2nc3ccncc3n2CC(=O)Nc2cc(C)cc(C)c2)cc1,7.38%
10,CCOc1ccc(-c2c(C(=O)N/N=C/c3ccc(C)o3)nnn2-c2nonc2N)cc1,21.8%
11,COc1ccc(NC(=S)NCc2ccc(S(N)(=O)=O)cc2)c(OC)c1,1.34%
12,CN(C)c1ccc(N/C=C/C(=O)C(C)(C)C)cc1,15.9%
13,O=C(NNC(=S)Nc1ccc(Br)cc1)c1ccc(N2CCOCC2)c([N+](=O)[O-])c1,-6.3%
14,O=C(N/N=C/c1cccc(OCc2ccccc2)c1)c1ccc(Br)cc1,0.881%
15,Cc1ccc(C(=O)C2CCN(CC(=O)N3CCN(c4ccc(F)cc4)CC3)CC2)cc1,-73.7%
16,CCOC(=O)C1CCN(c2c([N+](=O)[O-])c(C(Cl)Cl)nn2-c2ccccc2)CC1,-9.15%
17,CCN(CC)S(=O)(=O)c1ccc2oc(C(=O)NCC3COc4ccccc4O3)c(C)c2c1 (centres unmarked),-9.06%
18,CCOc1ccc(N(CC(=O)NC2CCCC2)S(=O)(=O)c2c(C)[nH]c(=O)[nH]c2=O)cc1,4.61%
